According to patent US10315992B2, “Tetracyline compounds” (Tetraphase Pharmaceuticals, Inc., priority 2012, dated 2019):

What follows are molecules tested on K. pneumoniae UNT023-1(KPC producing strain) (assay: MIC of test articles of the mouse pneumonia study). Conditions: Klebsiella pneumoniae.

| MIC [µg/mL] | Structure (SMILES) |
| --- | --- |
| 0.0625 | CCN(C)[C@@H]1C(O)=C(C(N)=O)C(=O)[C@@]2(O)C(O)=C3C(=O)c4c(O)cc(C5CCCN5)c(C(F)(F)F)c4C[C@H]3C[C@@H]12 (single isomer, unassigned) [Compound S4-14-5-A] |
| 0.0625 | CCN(CC)[C@@H]1C(O)=C(C(N)=O)C(=O)[C@@]2(O)C(O)=C3C(=O)c4c(O)cc(C5CCCN5)c(C(F)(F)F)c4C[C@H]3C[C@@H]12 (single isomer, unassigned) [Compound S4-14-14-A] |

| Structure (SMILES) | MIC [µg/mL] |
| --- | --- |
| CN(C)c1cc(NC(=O)CNC(C)(C)C)c(O)c2c1C[C@H]1C[C@H]3[C@H](N(C)C)C(O)=C(C(N)=O)C(=O)[C@@]3(O)C(O)=C1C2=O [Tigecycline, tigecycline] | 1 |
